Over roughly 81,000 sequences, “one-hybrid fitness for binding NBS DNA” has its median near -0.1; the highest 2% begin near 0.36. The list shows a part of the results.
B1: Caulobacter ParB omega fusion; a variant is named by its letters at X, in order, B8GW30 (parent)
chain: MESVVVGEPGMSEGRRGLGRGLSALLGEVDAAPAQAPGEQLGGSREAPIEILQRNPDQPRRTFREEDLEDLSNSIREKGVLQPILVRPSPDTAGEYQIVAGERAWRAAQRAGLKTVPIMVRELDDLAVLEIGIIENVQRADLNVLEEALSYKVLMEKFERTQENIAQTIGKSXSHVANXMRLLXLPDEVQSYLVSGELTAXHARAIAAAADPVALAKQIIEGGLSVRETEALARKAPNLSAGKSKGGRPPRVKDTDTQALESDLSSVLGLDVSIDHRGSTGTLTITYATLEQLDDLCNRLTRGI

Variants of: B1
Test: one-hybrid fitness for binding NBS DNA (the Noc-binding site; scaled: cognate 1, non-cognate 0); higher = stronger binding
Details: with NBS DNA site
Summary of the method: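 The reporter was HIS3, with the binding site 19 bp from the promoter, in E. coli USO used for bacterial one-hybrid selection of Caulobacter ParB libraries with four specificity codons randomised. Growth was on M9 lacking histidine, with 0.1 mM IPTG and 5 mM 3-AT, for 48 hours at 37°C. Illumina sequencing covered plasmids before and after selection; three replicate libraries were pooled and variants with under 10 reads dropped. A fitness score is the log change in variant-to-wild-type read ratio, rescaled to the cognate and non-cognate references.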

PGAK and EWEL cannot be ordered by “one-hybrid fitness for binding NBS DNA” value: ≤ 0.2 for the first, ≤ 0.2 for the second.

QSTQ and LLVT cannot be ordered by “one-hybrid fitness for binding NBS DNA” value: ≤ 0.2 for the first, ≤ 0.2 for the second.

SINT and MVDS cannot be ordered by “one-hybrid fitness for binding NBS DNA” value: ≤ 0.2 for the first, ≤ 0.2 for the second.

SYVW and SNHA cannot be ordered by “one-hybrid fitness for binding NBS DNA” value: ≤ 0.2 for the first, ≤ 0.2 for the second.

NAPT and RITF cannot be ordered by “one-hybrid fitness for binding NBS DNA” value: ≤ 0.2 for the first, ≤ 0.2 for the second.

QSGG and YMEW cannot be ordered by “one-hybrid fitness for binding NBS DNA” value: ≤ 0.2 for the first, ≤ 0.2 for the second.

YGEG and AVRN cannot be ordered by “one-hybrid fitness for binding NBS DNA” value: ≤ 0.2 for the first, ≤ 0.2 for the second.

KHTD and RPAN cannot be ordered by “one-hybrid fitness for binding NBS DNA” value: ≤ 0.2 for the first, ≤ 0.2 for the second.

RLSY and RQRG cannot be ordered by “one-hybrid fitness for binding NBS DNA” value: ≤ 0.2 for the first, ≤ 0.2 for the second.

KGAC and PAMR cannot be ordered by “one-hybrid fitness for binding NBS DNA” value: ≤ 0.2 for the first, ≤ 0.2 for the second.

TSPS and IPVC cannot be ordered by “one-hybrid fitness for binding NBS DNA” value: ≤ 0.2 for the first, ≤ 0.2 for the second.

GGAN and IMAG cannot be ordered by “one-hybrid fitness for binding NBS DNA” value: ≤ 0.2 for the first, ≤ 0.2 for the second.

PNAY and NARV cannot be ordered by “one-hybrid fitness for binding NBS DNA” value: ≤ 0.2 for the first, ≤ 0.2 for the second.

CVKR and RYFT cannot be ordered by “one-hybrid fitness for binding NBS DNA” value: ≤ 0.2 for the first, ≤ 0.2 for the second.

PVAN and ADAT cannot be ordered by “one-hybrid fitness for binding NBS DNA” value: ≤ 0.2 for the first, ≤ 0.2 for the second.

Going from QYKD to VTFM, the “one-hybrid fitness for binding NBS DNA” value falls from 0.212 to ≤ 0.2.

MCTR and LRNP cannot be ordered by “one-hybrid fitness for binding NBS DNA” value: ≤ 0.2 for the first, ≤ 0.2 for the second.

RGWM and DVYT cannot be ordered by “one-hybrid fitness for binding NBS DNA” value: ≤ 0.2 for the first, ≤ 0.2 for the second.

QMTH and LFCR cannot be ordered by “one-hybrid fitness for binding NBS DNA” value: ≤ 0.2 for the first, ≤ 0.2 for the second.

LLRT and DMDV cannot be ordered by “one-hybrid fitness for binding NBS DNA” value: ≤ 0.2 for the first, ≤ 0.2 for the second.

PSKV and KENP cannot be ordered by “one-hybrid fitness for binding NBS DNA” value: ≤ 0.2 for the first, ≤ 0.2 for the second.

WKTL and QGSI cannot be ordered by “one-hybrid fitness for binding NBS DNA” value: ≤ 0.2 for the first, ≤ 0.2 for the second.

SAWS and TTCI cannot be ordered by “one-hybrid fitness for binding NBS DNA” value: ≤ 0.2 for the first, ≤ 0.2 for the second.

DGVC and FVAV cannot be ordered by “one-hybrid fitness for binding NBS DNA” value: ≤ 0.2 for the first, ≤ 0.2 for the second.

Compared with RRKV, HFPW is lower in “one-hybrid fitness for binding NBS DNA” value: 0.694 for the first, ≤ 0.2 for the second.

RTYK and WQSR cannot be ordered by “one-hybrid fitness for binding NBS DNA” value: ≤ 0.2 for the first, ≤ 0.2 for the second.

QLYW and IAPF cannot be ordered by “one-hybrid fitness for binding NBS DNA” value: ≤ 0.2 for the first, ≤ 0.2 for the second.

Going from HHIH to IRRS, the “one-hybrid fitness for binding NBS DNA” value rises from ≤ 0.2 to 0.349.

ETLE and PSHP cannot be ordered by “one-hybrid fitness for binding NBS DNA” value: ≤ 0.2 for the first, ≤ 0.2 for the second.

LFCA and RVYH cannot be ordered by “one-hybrid fitness for binding NBS DNA” value: ≤ 0.2 for the first, ≤ 0.2 for the second.

ISSI and RLSE cannot be ordered by “one-hybrid fitness for binding NBS DNA” value: ≤ 0.2 for the first, ≤ 0.2 for the second.

First: PPSG
Second: QTQA
The “one-hybrid fitness for binding NBS DNA” value of the first is lower: ≤ 0.2 for the first, 0.432 for the second.

SLKE and ELAV cannot be ordered by “one-hybrid fitness for binding NBS DNA” value: ≤ 0.2 for the first, ≤ 0.2 for the second.

RCPC and YDLS cannot be ordered by “one-hybrid fitness for binding NBS DNA” value: ≤ 0.2 for the first, ≤ 0.2 for the second.

RNWY and IPAV cannot be ordered by “one-hybrid fitness for binding NBS DNA” value: ≤ 0.2 for the first, ≤ 0.2 for the second.

PNDT and QKQM cannot be ordered by “one-hybrid fitness for binding NBS DNA” value: ≤ 0.2 for the first, ≤ 0.2 for the second.

NTTT and NLYH cannot be ordered by “one-hybrid fitness for binding NBS DNA” value: ≤ 0.2 for the first, ≤ 0.2 for the second.

EPDS and EVTC cannot be ordered by “one-hybrid fitness for binding NBS DNA” value: ≤ 0.2 for the first, ≤ 0.2 for the second.

SCEW and PKCG cannot be ordered by “one-hybrid fitness for binding NBS DNA” value: ≤ 0.2 for the first, ≤ 0.2 for the second.

CASC and KKQL cannot be ordered by “one-hybrid fitness for binding NBS DNA” value: ≤ 0.2 for the first, ≤ 0.2 for the second.

CMSS and FTKV cannot be ordered by “one-hybrid fitness for binding NBS DNA” value: ≤ 0.2 for the first, ≤ 0.2 for the second.

Going from CCPC to QTYR, the “one-hybrid fitness for binding NBS DNA” value rises from ≤ 0.2 to 0.691.

PSWP and FEMC cannot be ordered by “one-hybrid fitness for binding NBS DNA” value: ≤ 0.2 for the first, ≤ 0.2 for the second.

IPFD and GLTT cannot be ordered by “one-hybrid fitness for binding NBS DNA” value: ≤ 0.2 for the first, ≤ 0.2 for the second.

RPVG and QFQA cannot be ordered by “one-hybrid fitness for binding NBS DNA” value: ≤ 0.2 for the first, ≤ 0.2 for the second.

Going from QRFN to QENC, the “one-hybrid fitness for binding NBS DNA” value falls from 0.353 to ≤ 0.2.

RVYW and LWHP cannot be ordered by “one-hybrid fitness for binding NBS DNA” value: ≤ 0.2 for the first, ≤ 0.2 for the second.

CPLN and PGMI cannot be ordered by “one-hybrid fitness for binding NBS DNA” value: ≤ 0.2 for the first, ≤ 0.2 for the second.

QAGP and GNSV cannot be ordered by “one-hybrid fitness for binding NBS DNA” value: ≤ 0.2 for the first, ≤ 0.2 for the second.

TSVH and ESRD cannot be ordered by “one-hybrid fitness for binding NBS DNA” value: ≤ 0.2 for the first, ≤ 0.2 for the second.

PKYN and VEDC cannot be ordered by “one-hybrid fitness for binding NBS DNA” value: ≤ 0.2 for the first, ≤ 0.2 for the second.

WMMS and AVGK cannot be ordered by “one-hybrid fitness for binding NBS DNA” value: ≤ 0.2 for the first, ≤ 0.2 for the second.

NMWL and SVFS cannot be ordered by “one-hybrid fitness for binding NBS DNA” value: ≤ 0.2 for the first, ≤ 0.2 for the second.

QIRI and DSLW cannot be ordered by “one-hybrid fitness for binding NBS DNA” value: ≤ 0.2 for the first, ≤ 0.2 for the second.

AMMK and SLDS cannot be ordered by “one-hybrid fitness for binding NBS DNA” value: ≤ 0.2 for the first, ≤ 0.2 for the second.

FTSR and KCLY cannot be ordered by “one-hybrid fitness for binding NBS DNA” value: ≤ 0.2 for the first, ≤ 0.2 for the second.

CIAT and QCGP cannot be ordered by “one-hybrid fitness for binding NBS DNA” value: ≤ 0.2 for the first, ≤ 0.2 for the second.

STQY and NRSH cannot be ordered by “one-hybrid fitness for binding NBS DNA” value: ≤ 0.2 for the first, ≤ 0.2 for the second.

YIIY and VCRC cannot be ordered by “one-hybrid fitness for binding NBS DNA” value: ≤ 0.2 for the first, ≤ 0.2 for the second.

TYLV and WQRC cannot be ordered by “one-hybrid fitness for binding NBS DNA” value: ≤ 0.2 for the first, ≤ 0.2 for the second.

CTAC and MCLV cannot be ordered by “one-hybrid fitness for binding NBS DNA” value: ≤ 0.2 for the first, ≤ 0.2 for the second.

LNTF and LFKP cannot be ordered by “one-hybrid fitness for binding NBS DNA” value: ≤ 0.2 for the first, ≤ 0.2 for the second.

NQLG and TCVV cannot be ordered by “one-hybrid fitness for binding NBS DNA” value: ≤ 0.2 for the first, ≤ 0.2 for the second.

GHQG and KWKA cannot be ordered by “one-hybrid fitness for binding NBS DNA” value: ≤ 0.2 for the first, ≤ 0.2 for the second.

First: RADV
Second: RSCR
The “one-hybrid fitness for binding NBS DNA” value of the first is lower: ≤ 0.2 for the first, 0.38 for the second.

CPTY and NFLN cannot be ordered by “one-hybrid fitness for binding NBS DNA” value: ≤ 0.2 for the first, ≤ 0.2 for the second.

RHRK and LRGL cannot be ordered by “one-hybrid fitness for binding NBS DNA” value: ≤ 0.2 for the first, ≤ 0.2 for the second.

RTDH and SLGN cannot be ordered by “one-hybrid fitness for binding NBS DNA” value: ≤ 0.2 for the first, ≤ 0.2 for the second.

HCNE and HIEI cannot be ordered by “one-hybrid fitness for binding NBS DNA” value: ≤ 0.2 for the first, ≤ 0.2 for the second.

ILKC and PNTG cannot be ordered by “one-hybrid fitness for binding NBS DNA” value: ≤ 0.2 for the first, ≤ 0.2 for the second.

QAAI and LRIH cannot be ordered by “one-hybrid fitness for binding NBS DNA” value: ≤ 0.2 for the first, ≤ 0.2 for the second.

TTDT and PIRK cannot be ordered by “one-hybrid fitness for binding NBS DNA” value: ≤ 0.2 for the first, ≤ 0.2 for the second.

QLAC and KYQR cannot be ordered by “one-hybrid fitness for binding NBS DNA” value: ≤ 0.2 for the first, ≤ 0.2 for the second.

MPLA and PPQW cannot be ordered by “one-hybrid fitness for binding NBS DNA” value: ≤ 0.2 for the first, ≤ 0.2 for the second.

KGGS and LTLL cannot be ordered by “one-hybrid fitness for binding NBS DNA” value: ≤ 0.2 for the first, ≤ 0.2 for the second.

LEIT and DGET cannot be ordered by “one-hybrid fitness for binding NBS DNA” value: ≤ 0.2 for the first, ≤ 0.2 for the second.

LPKE and YTRD cannot be ordered by “one-hybrid fitness for binding NBS DNA” value: ≤ 0.2 for the first, ≤ 0.2 for the second.

Compared with HAMK, QRLA is higher in “one-hybrid fitness for binding NBS DNA” value: ≤ 0.2 for the first, 0.547 for the second.

VHPT and LTLV cannot be ordered by “one-hybrid fitness for binding NBS DNA” value: ≤ 0.2 for the first, ≤ 0.2 for the second.

CTII and YNLG cannot be ordered by “one-hybrid fitness for binding NBS DNA” value: ≤ 0.2 for the first, ≤ 0.2 for the second.

SHYS and CAGT cannot be ordered by “one-hybrid fitness for binding NBS DNA” value: ≤ 0.2 for the first, ≤ 0.2 for the second.

CTGE and SRFC cannot be ordered by “one-hybrid fitness for binding NBS DNA” value: ≤ 0.2 for the first, ≤ 0.2 for the second.

QEKS and NTLG cannot be ordered by “one-hybrid fitness for binding NBS DNA” value: ≤ 0.2 for the first, ≤ 0.2 for the second.

KRFH and EFAR cannot be ordered by “one-hybrid fitness for binding NBS DNA” value: ≤ 0.2 for the first, ≤ 0.2 for the second.

TEVS and MNSW cannot be ordered by “one-hybrid fitness for binding NBS DNA” value: ≤ 0.2 for the first, ≤ 0.2 for the second.

CTTW and AQRV cannot be ordered by “one-hybrid fitness for binding NBS DNA” value: ≤ 0.2 for the first, ≤ 0.2 for the second.

First: QMIW
Second: QRKF
The “one-hybrid fitness for binding NBS DNA” value of the first is lower: ≤ 0.2 for the first, 0.405 for the second.

MNPG and YRFC cannot be ordered by “one-hybrid fitness for binding NBS DNA” value: ≤ 0.2 for the first, ≤ 0.2 for the second.

NHTC and TMKG cannot be ordered by “one-hybrid fitness for binding NBS DNA” value: ≤ 0.2 for the first, ≤ 0.2 for the second.

VIQW and NGVV cannot be ordered by “one-hybrid fitness for binding NBS DNA” value: ≤ 0.2 for the first, ≤ 0.2 for the second.

Compared with GKLV, RRCR is higher in “one-hybrid fitness for binding NBS DNA” value: ≤ 0.2 for the first, 0.75 for the second.

ECAS and EQLN cannot be ordered by “one-hybrid fitness for binding NBS DNA” value: ≤ 0.2 for the first, ≤ 0.2 for the second.

SAAM and CHNW cannot be ordered by “one-hybrid fitness for binding NBS DNA” value: ≤ 0.2 for the first, ≤ 0.2 for the second.

RVNE and LDYP cannot be ordered by “one-hybrid fitness for binding NBS DNA” value: ≤ 0.2 for the first, ≤ 0.2 for the second.

RFAV and SGIW cannot be ordered by “one-hybrid fitness for binding NBS DNA” value: ≤ 0.2 for the first, ≤ 0.2 for the second.

THGL and SMVL cannot be ordered by “one-hybrid fitness for binding NBS DNA” value: ≤ 0.2 for the first, ≤ 0.2 for the second.

FYPG and SMPK cannot be ordered by “one-hybrid fitness for binding NBS DNA” value: ≤ 0.2 for the first, ≤ 0.2 for the second.

ENNW was tested, and the “one-hybrid fitness for binding NBS DNA” value was ≤ 0.2.

— a collection of fitness landscapes (doi:10.1016/j.celrep.2020.107928)
